The values that follow come from PubChem BioAssay AID1159614 (National Center for Advancing Translational Sciences (NCATS), 2016).

In all, about 45,000 compounds went through this assay and about 65 (0.1%) were called active. Calls come from the whole dose curve; as a rule, active = well fitted activation curve with a large enough effect; inconclusive = small, poorly fitted or top-dose-only effect; inactive = no such curve, though single readings can be large or run the other way. The list shows a part of the results.

Sequence of UniProt P54803 (P54803 whole entry, looked up): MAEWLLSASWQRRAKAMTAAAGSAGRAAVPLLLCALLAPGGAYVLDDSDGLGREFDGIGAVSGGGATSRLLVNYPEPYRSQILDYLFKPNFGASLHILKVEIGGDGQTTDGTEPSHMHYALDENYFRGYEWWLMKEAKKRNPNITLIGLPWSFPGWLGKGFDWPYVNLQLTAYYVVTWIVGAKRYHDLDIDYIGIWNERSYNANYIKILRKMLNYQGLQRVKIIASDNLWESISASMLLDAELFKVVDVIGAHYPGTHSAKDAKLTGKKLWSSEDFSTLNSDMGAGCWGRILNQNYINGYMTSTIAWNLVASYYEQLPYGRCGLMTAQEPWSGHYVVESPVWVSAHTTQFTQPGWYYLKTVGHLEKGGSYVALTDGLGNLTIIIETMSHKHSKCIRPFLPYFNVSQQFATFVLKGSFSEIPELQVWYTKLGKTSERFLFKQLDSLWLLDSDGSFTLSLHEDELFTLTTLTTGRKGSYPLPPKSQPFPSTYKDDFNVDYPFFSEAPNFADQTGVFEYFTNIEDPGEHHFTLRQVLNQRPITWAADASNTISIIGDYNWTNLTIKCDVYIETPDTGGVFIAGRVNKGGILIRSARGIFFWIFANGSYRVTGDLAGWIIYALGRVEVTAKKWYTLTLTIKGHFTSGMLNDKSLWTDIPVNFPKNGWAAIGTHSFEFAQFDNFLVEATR

This assay addresses Galactocerebrosidase (Homo sapiens) (UniProt P54803). Briefly: A Novel Cell-Based Assay to Identify Small Molecules for B -Galactocerebrosidase. Note: 0% is about no effect; nearly all actives have a fitted effect of over 65% in size. The conditions noted are these: 145M-Twi-hGALC-G270D cells (Twitcher mouse brain line with human GALC G270D), HMU-beta-Gal fluorescence, 48 h; series mostly up to 57.5 µM; activation: at the top concentration. The method in brief:
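Fluorogenic HMU-b-Gal hydrolysis (0.1 mM final, pH 5.2 citrate-phosphate with 1 mg/mL sodium taurocholate; carbonate stop buffer) measures mutant GALC activity after compound treatment of live 145M-Twi Twitcher brain cells stably carrying human GALC-G270D, with wild-type GALC line alongside; activation sought.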
For the molecule `Cc1nn(CCCC(=O)NCCc2ccc(Cl)cc2)c(=O)c2c1sc1ccccc12`, the “activation” value is inactive: -20.9%. In the case of `Cc1ccccc1OCC(=O)Nc1ccccc1C(=O)OCc1cc(=O)n2ccsc2n1`, the “activation” value is inactive: -12.1%. Consider `Cc1cc(C(F)F)n2nc(C(=O)Nc3cccc(Cl)c3C)nc2n1`, for which the “activation” value is inactive: 0.539%. `N=c1c(C(=O)NCC2CCCO2)cc2c(=O)n3ccccc3nc2n1CCCO` (configuration not stated): the “activation” value was inactive: -4.77%.

`COc1ccc(Cn2c(C(=O)O)c(CNCCc3ccco3)c3ccc(C)cc32)cc1`: the “activation” value is inactive: -11.6%. With `CCOc1cc(C(=O)NCCc2csc3nc(-c4ccccc4F)nn23)cc(OCC)c1OCC` the figure was inactive: 1.06%; with `COc1ccc(F)cc1S(=O)(=O)NCC(c1ccco1)S(=O)(=O)c1ccc(F)cc1` (configuration not stated), inactive: -15.4%. In the case of `O=C(CN1C(=O)CCn2nc(-c3ccccc3)cc21)NCc1ccc(F)cc1`, the “activation” value is inactive: -10.7%. On to `CCOc1ccc(CNC(=O)C2CCN(S(=O)(=O)c3cn(C)cn3)CC2)cc1`, for which the “activation” value is inactive: -11%.

Regarding `COc1ccc2c(c1)c1c(c(=O)n(-c3ccccc3)c(=O)n1CC(=O)NCCC1=CCCCC1)n2C`, the “activation” value is inactive: -5.68%. With `Cn1ncc2c(NCc3ccccc3Cl)nc(NCCO)nc21`, the “activation” value is inactive: -14.5%. Consider `Cc1c(-c2ccccc2)oc2c(C(=O)OCCN3CCCCC3)cccc2c1=O`, for which the “activation” value was inactive: 8.36%. With `O=C(Nc1ccc(-n2nncc2-c2ccccc2)cc1)c1cccc(F)c1` the figure was inactive: -15.8%. With `Cc1ccccc1N(C)S(=O)(=O)c1nnc(NC(=O)c2ccccc2F)s1` the figure was inactive: 0.527%. With `COc1ccc(-n2ccnc2SCC(=O)Nc2nnc(C)s2)cc1`, the “activation” value is inactive: -16.1%.

In the case of `COc1cc(CN2CCc3nc(N4CCN(c5ncccn5)CC4)ncc3C2)cc(OC)c1OC`, the “activation” value was inactive: -8.28%. For `Cc1cc(C)cc(NC(=O)Cn2c(=O)n(-c3cc(C)cc(C)c3)c(=O)c3oc4ccccc4c32)c1`, the “activation” value was inactive: -3.2%.

Take `Cc1nc2ccccc2n2c(-c3ccccc3)c3c(=O)n(C)c(=O)n(C)c3c12`: the “activation” value was inactive: -10.4%.

Turning to `CCOC(=O)Cn1c(=O)n(C2CCCCC2)c2nc(-c3ccc(CC)cc3)nc(C(N)=O)c21`, the “activation” value is inactive: -3.5%. Turning to `Cn1nc(C(=O)NCc2cccc(Cl)c2)c2c1-c1ccccc1S(=O)(=O)C2`, the “activation” value is inactive: -12.7%. On to `Cc1c(Cl)cccc1NC(=O)CCS(=O)(=O)c1ccc2c(c1)oc(=O)n2C`, for which the “activation” value is inactive: -11.1%.

Consider `COc1cccc(CNC(=O)CCn2nc(C)c3c(C)n(-c4ccccc4)nc3c2=O)c1`, for which the “activation” value was inactive: -11.3%. The same measure for `CN(c1ccccc1)S(=O)(=O)c1nnc(NC(=O)C2CCCCC2)s1`: inactive: -2.44%.

Turning to `Cc1ccc(NC(=O)C(=O)NCCc2sc(-c3ccc(Cl)cc3)nc2C)cc1C`, the “activation” value is inactive: -4.17%. Regarding `COc1cccc(Cn2c(CNC(=O)CCc3ccccc3)nc3cccnc32)c1`, the “activation” value is inactive: 6.31%.

For `Cc1ccc(S(=O)(=O)NCCc2csc(-c3ccc(Cl)cc3)n2)cc1`, the “activation” value was inactive: -14.2%. As for `COc1cccc(C(=O)N(Cc2cccnc2)c2nc3c(OC)ccc(C)c3s2)c1OC`, the “activation” value is inactive: -15.5%. With `COc1ccc(NCc2cc3cc4c(cc3n(CC(=O)Nc3ccc(F)cc3)c2=O)OCCO4)cc1` the figure was inactive: -6.54%.

`CCOC(=O)c1c(C)c(C(=O)NCc2ccc(OC)cc2)c(C)n1CC`: the “activation” value was inactive: -10.3%. With `COC(=O)C(C)Sc1nc2c(cnn2-c2ccc(F)cc2)c(=O)[nH]1` (configuration not stated), the “activation” value is inactive: -22.5%.

For `CCOc1cc(C2CC(=O)Nc3cc4c(cc32)OCCO4)ccc1O` (configuration not stated), the “activation” value was inactive: -20.9%. `COc1ccc2c(c1)-c1nc(NC(=O)c3ccc(C)cc3)sc1CC2`: the “activation” value is inactive: -9.83%. The same measure for `CCOc1ccc(-c2cc(NC(=O)c3ccc(C)cc3)c(C(=O)OC)s2)cc1`: inactive: -16.6%; for `Cc1cc(C)cc(-n2c(SCC(=O)NCC3CCCO3)nc3c([nH]c4ccccc43)c2=O)c1` (configuration not stated): inactive: -21.9%; for `COc1ccc(-c2noc(-c3ccc(NCCc4ccccc4)c([N+](=O)[O-])c3)n2)cc1OC`: inactive: -11.7%. As to `CCCC(=O)C1=C(c2ccc(C)c(C)c2)N(C(=O)CCC)n2c(CC)nnc2S1`, the “activation” value is inactive: -6.48%. Turning to `Cn1cnc2c1c(=O)[nH]c(=O)n2C`, the “activation” value is inactive: -0.667%. For `O=C(Cn1ncc2c3ccccc3n(Cc3ccccc3)c2c1=O)Nc1ccccc1C(F)(F)F`, the “activation” value is inactive: -0.104%. As to `COc1ccc(OC)c(CNC(=O)CCCn2nc(C)c3c(C)n(-c4ccc(C)cc4)nc3c2=O)c1`, the “activation” value was inactive: -0.42%. With `CC(C)c1ccc(NS(=O)(=O)c2ccc3[nH]cc(C(=O)N4CCCC4)c(=O)c3c2)cc1` the figure was inactive: 3.81%. The same measure for `CCn1ccc2cc(S(=O)(=O)N3CCCN(C(=O)Nc4cc(Cl)ccc4C)CC3)ccc21`: inactive: -26.9%; for `CCOc1ccc(NC(=O)Nc2ccc3snnc3c2)cc1`: inactive: -37.3%; for `COc1cccc(CNC(=O)Cc2c(C)c3c(cc(C)c4c(C)coc43)oc2=O)c1`: inactive: -1.25%. In the case of `CC1=NN(c2ccccc2)C(=O)C1`, the “activation” value is inactive: -12.5%. In the case of `Cc1nn(-c2nc(-c3ccc(F)cc3)cc(C(F)(F)F)n2)c(C)c1Cl`, the “activation” value is inactive: -25.2%. For `Cn1ccc2c(OCC(=O)NCc3ccccc3Cl)cccc2c1=O`, the “activation” value was inactive: -9.52%. With `CC(=O)N1CCC2(CC1)OC(=O)C(C)=C2C(=O)NCc1ccc(Cl)cc1` the figure was inactive: -2.37%; with `CCc1ccc(CNC(=O)c2ccc3nc(C(C)C)oc3c2)cc1`, inactive: -13.3%; with `CCCc1ccc(OCC(=O)N2CCN(C(=O)COc3ccc(CCC)cc3OC)CC2)c(OC)c1`, inactive: -7.92%.

In the case of `CCc1ccc(NC(=O)C(=O)NCC(c2cccnc2)N2CCN(C)CC2)cc1` (configuration not stated), the “activation” value was inactive: -7.98%. On to `COc1ccc(OC(C)c2nc3ccccc3[nH]2)cc1` (configuration not stated), for which the “activation” value was inactive: -26.2%.

On to `O=C(Nc1ccc2oc(-c3cccnc3)nc2c1)c1ccc(-c2ccccc2)o1`, for which the “activation” value was inactive: -14%.

With `O=c1cc(-c2ccc(F)cc2)nc(SCc2nc(-c3ccccc3Cl)no2)[nH]1`, the “activation” value is inactive: -11%. Take `COC(=O)c1ccc(Cl)cc1NC(=O)N(C)CCc1c(C)nn(C)c1C`: the “activation” value is inactive: -17.3%. With `CCOc1ccc(NC(=O)C(=O)NCCc2csc3nc(-c4ccccc4F)nn23)cc1` the figure was inactive: -8.32%; with `CCOC(=O)c1ccc(NC(=O)c2csc3c2CCCCC3)cc1`, inactive: -31.5%; with `COc1cc(NC(=O)C(CC(C)C)NS(=O)(=O)c2ccc3c(c2)oc(=O)n3C)c(C(=O)O)cc1OC` (configuration not stated), inactive: -5.06%. With `CCOc1ccc(NC(=O)Cn2cc(C(=O)c3ccc(C)c(C)c3)c(=O)c3cc(OC)c(OC)cc32)cc1` the figure was inactive: 2.86%; with `O=C(COc1ccccc1Cl)Nc1ccc(Cl)c(-c2nc3ccccc3o2)c1`, inactive: -7.39%. For the molecule `O=C(O)c1ccc2nc(-c3cc4cc(F)ccc4oc3=O)[nH]c2c1`, the “activation” value was inactive: -12.5%. As for `Cc1cccc(N2CCN(C(=O)c3cc4c(=O)n(C)c5ccccc5c4s3)CC2)c1C`, the “activation” value was inactive: -8.34%. Consider `COc1ccc(CCn2c3c(c(=O)[nH]c2=O)C(NC(=O)c2ccccc2OC)(C(F)(F)F)C(=O)N3)cc1OC` (configuration not stated), for which the “activation” value was inactive: -7.79%.
